The campaign covered roughly 330,000 compounds. About 300 (0.091%) were called active. Inconclusive results, whose numbers are uncertain, are shown with a selection of clear calls. The call rests on the fitted dose curve; in most records, active means well fitted inhibition curve with a large enough effect; inconclusive means small, poorly fitted or top-dose-only effect, or effect the other way, or another doubt; inactive means no such curve, though single readings can be large or run the other way. Potencies of inconclusive entries are left out as doubtful fits.
The molecules below were run against Lysosomal acid glucosylceramidase (Homo sapiens) (UniProt P04062) (assay: qHTS Assay for Inhibitors and Activators of N370S glucocerebrosidase as a Potential Chaperone Treatment of Gaucher Disease). Details: N370S GC spleen homogenate, 4MU-glucoside fluorescence; activity change, negative = inhibition: at 59.4 µM (top of the series) unless noted.
In the case of `O=[N+]([O-])c1ccccc1OCc1nc(-c2cccs2)no1`, the “activity change, negative = inhibition” value is reported as inactive: -0.63%. `CCOC(=O)C1CCN(C(=O)CCS(=O)(=O)c2ccc3c(c2)CCN3C(=O)CC)CC1` was tested, and the “activity change, negative = inhibition” value was inactive: -15.6%. `Cc1cccc(CNc2cc(-c3ccccc3Cl)ncn2)c1` was tested, and the Potency was inconclusive [inhibitor, partial curve]. In the case of `CC1CCN(C(=O)CSc2nc3ccccc3[nH]2)CC1`, the “activity change, negative = inhibition” value is reported as inactive: 2.82%. `Clc1nccnc1-c1ccccc1` was tested, and the Potency was inconclusive [inhibitor, single point]. For `FC(F)(F)c1cccc(NC(=S)Nc2cccc(NC(=S)Nc3cccc(C(F)(F)F)c3)n2)c1`, the Potency was inconclusive [activator, single point]. `Cc1ccc(-c2ccc(CCC(=O)O)n2-c2ccc(O)cc2)cc1` was tested, and the Potency was inconclusive [inhibitor, full curve, poor fit]. In the case of `Cc1ccc(C(=O)N/C(=C\c2ccc(-c3cc(Cl)ccc3Cl)o2)C(=O)NCc2cccnc2)cc1`, the Potency is reported as inconclusive [inhibitor, partial curve]. `CN(C)Cc1c(O)ccc2cc(-c3nc4ccccc4n3C)c(=O)oc12` was tested, and the Potency was inconclusive [activator, partial curve]. With `COc1ccc(C(=O)COC(=O)/C=C/c2ccccc2)cc1` the Potency was inconclusive [inhibitor, single point]. With `Cc1ccc(C(=O)c2cc3ccccc3o2)cc1[N+](=O)[O-]` the Potency was inconclusive [activator, single point]. `CC(C)(C)C(=O)NC(c1ccccc1)c1c(O)ccc2ccccc12` (stereo unspecified) was tested, and the Potency was inconclusive [activator, full curve]. In the case of `Cn1cc(-c2nc3cnc(N4CCNCC4)nc3n(C3CC3)c2=O)c2ccccc21`, the Potency is reported as inconclusive [inhibitor, single point]. With `CCCCCCCC1=CC2=C(Cl)C(=O)C(C)(OC(C)=O)C(=O)C2=CN1C` (stereo unspecified) the “activity change, negative = inhibition” value was inactive: -2.72%. With `CCOC(=O)N1CCN(C(=O)C2CCN(c3ncnc4c3sc3cccc(F)c34)CC2)CC1` the Potency was inconclusive [inhibitor, partial curve]. `Cc1ccc(-n2c(C)cc(/C=N/NC(=O)Cn3c4ccccc4c(=O)c4ccccc43)c2C)cc1` was tested, and the Potency was inconclusive [activator, single point]. For `Cc1ccc(NC(=O)COC(=O)/C=C/c2ccc(Br)o2)cc1S(=O)(=O)N(C)C`, the “activity change, negative = inhibition” value was inactive: -3.79%. With `Cc1ccc(-n2nc(C)c3c(C)c(CCC(=O)NCC4CCCO4)c(=O)n(C)c32)cc1` (stereo unspecified) the Potency was inconclusive [inhibitor, single point]. For `Cc1ccc(NC(=O)c2cc(N3CCOCC3)nc3ccccc23)cc1`, the Potency was inconclusive [inhibitor, partial curve]. In the case of `C/C(N)=C(/C#N)C(=O)COC(=O)C(NS(=O)(=O)c1ccc(Cl)cc1)C(C)O` (stereo unspecified), the activity change, negative = inhibition is reported as inconclusive: 28% [activator]. With `COc1cc2c(cc1NC(=O)COC(=O)C(CCSC)NC(=O)c1ccccc1Cl)oc1ccccc12` (stereo unspecified) the Potency was inconclusive [activator, full curve, poor fit]. In the case of `Fc1ccccc1N1CC(c2ccccc2)C(c2cccs2)=N1` (stereo unspecified), the Potency is reported as inconclusive [activator, partial curve]. For `O=C(COc1ccccc1Cl)Nc1nc(-c2cccs2)cs1`, the Potency was inconclusive [activator, partial curve]. `CCN(CC)CCCNC(=O)c1cn(C)c(=O)c2c1c1ccccc1n2C` was tested, and the Potency was inconclusive [activator, partial curve]. With `C=CCN(C)CCCCCCOc1ccc(C(=O)c2ccc(Br)cc2)c(F)c1` the “activity change, negative = inhibition” value was inactive: -19.8%. In the case of `O=C(CCn1ccc2cc(S(=O)(=O)N3CCCC3)ccc21)NCc1ccccc1F`, the Potency is reported as inconclusive [inhibitor, single point]. `C=CCn1cc(-c2ccc(Cl)cc2)cc(C#N)c1=O` was tested, and the Potency was inconclusive [activator, partial curve]. With `Cc1cc(C)c2c(N)c(C(=O)Nc3ccc(C)c(C)c3)sc2n1` the Potency was inconclusive [activator, single point]. With `CCOc1cccc2sc(N(CCN(C)C)C(=O)c3cc4ccccc4cc3OC)nc12` the Potency was inconclusive [inhibitor, partial curve]. In the case of `COc1ccc(NC(=O)O/N=C/c2ccc(N(C)C)cc2)cc1`, the “activity change, negative = inhibition” value is reported as inactive: -2.53%. With `CCn1ncc(Br)c1C(=O)Nc1ccc(C(=O)OC(C)C)cc1` the activity change, negative = inhibition was inconclusive: 21.7% [activator]. With `COc1ccccc1N/C(=N/S(=O)(=O)c1ccc(Cl)cc1)c1ccccc1` the “activity change, negative = inhibition” value was inactive: 23.3%. With `CCn1c(SCC(=O)Nc2ccccc2)nc2nc3c(cc2c1=O)COC(C)(C)C3` the Potency was inconclusive [activator, partial curve]. With `COc1cccc(NC(=O)CSc2nc3ccccc3c(=O)n2Cc2cccs2)c1` the Potency was inconclusive [activator, full curve]. `O=c1[nH]c2ccccc2nc1C(Nc1ccccc1)c1ccccc1` (stereo unspecified) was tested, and the Potency was inconclusive [activator, full curve]. `COCCCNC(=O)c1ccc2c3c(onc13)-c1ccccc1C2=O` was tested, and the Potency was inconclusive [inhibitor, single point]. `CSc1cccc(N2CC(C(=O)N(Cc3nnc(-c4ccccc4Cl)o3)C3CC3)CC2=O)c1` (stereo unspecified) was tested, and the Potency was inconclusive [activator, partial curve]. With `COc1ccc(S(=O)(=O)CC(=O)c2cc(C)c(O)c(C)c2)cc1` the Potency was inconclusive [inhibitor, single point]. For `COc1ccc2c(c1)CC/C(=C\c1ccc(OC)c(Cn3cccn3)c1)C2=O`, the Potency was inconclusive [activator, partial curve]. With `O=C(N/N=C\c1ccccn1)C1c2ccccc2Oc2ccccc21` the Potency was inconclusive [activator, partial curve, poor fit]. With `COc1ccc(NC(=O)/C(C#N)=C/c2c(C)nn(-c3ccc(F)cc3)c2Cl)cc1Cl` the Potency was inconclusive [activator, partial curve].
Potency means the concentration at half of the fitted maximal effect.
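Wherever activity change, negative = inhibition is given: 0% = full enzyme activity and -100% = no enzyme basal.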
